# This is one part of the list.
# What was measured:
# Experiment in all cases: glycan array binding signal (z-score within array); higher = stronger binding
# Details in all cases: glycan notation: IUPAC condensed, linker removed
# [1] = molecular target: Gal(a1-3)Gal(b1-3)GlcNAc(b1-2)Man
# Summary of the method: (§1)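 The binding signal is a Z-score computed within each array. Data were drawn from 3228 arrays in the Consortium for Functional Glycomics database, restricted to those with a known protein sequence. Scores were averaged over arrays of the same protein sequence at different concentrations or buffers, and over linkers, and negative values can be taken as non-binding.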
# [2] = molecular target: Gal(a1-3)Gal(b1-3)GlcNAc(b1-2)Man(a1-3)[Gal(a1-3)Gal(b1-3)GlcNAc(b1-2)Man(a1-6)]Man(b1-4)GlcNAc(b1-4)GlcNAc
# Summary of the method: as §1
# [3] = molecular target: Gal(a1-3)Gal(b1-3)GlcNAc(b1-3)GalNAc
# Summary of the method: as §1
# [4] = molecular target: Gal(a1-3)Gal(b1-3)GlcNAc(b1-6)GalNAc
# Summary of the method: as §1
# [5] = molecular target: Gal(a1-3)Gal(b1-3)[Fuc(a1-4)]GlcNAc(b1-2)Man(a1-3)[Gal(a1-3)Gal(b1-3)[Fuc(a1-4)]GlcNAc(b1-2)Man(a1-6)]Man(b1-4)GlcNAc(b1-4)GlcNAc
# Summary of the method: as §1
# Gal(a1-3)Gal(b1-4)Glc = molecular target: Gal(a1-3)Gal(b1-4)Glc
# Summary of the method: as §1
# Gal(a1-3)Gal(b1-4)GlcNAc = molecular target: Gal(a1-3)Gal(b1-4)GlcNAc
# Summary of the method: as §1
# [6] = molecular target: Gal(a1-3)Gal(b1-4)GlcNAc(b1-2)Man
# Summary of the method: as §1
# [7] = molecular target: Gal(a1-3)Gal(b1-4)GlcNAc(b1-2)Man(a1-3)[Gal(a1-3)Gal(b1-4)GlcNAc(b1-2)Man(a1-6)]Man(b1-4)GlcNAc(b1-4)GlcNAc
# Summary of the method: as §1
# [8] = molecular target: Gal(a1-3)Gal(b1-4)GlcNAc(b1-3)GalNAc
# Summary of the method: as §1
# [9] = molecular target: Gal(a1-3)Gal(b1-4)GlcNAc(b1-6)GalNAc
# Summary of the method: as §1
# [10] = molecular target: Gal(a1-3)Gal(b1-4)[Fuc(a1-3)]GlcNAc
# Summary of the method: as §1
# [11] = molecular target: Gal(a1-3)Gal(b1-4)[Fuc(a1-3)]GlcNAc(b1-2)Man(a1-3)[Gal(a1-3)Gal(b1-4)[Fuc(a1-3)]GlcNAc(b1-2)Man(a1-6)]Man(b1-4)GlcNAc(b1-4)GlcNAc
# Summary of the method: as §1
# Gal(a1-3)GalNAc = molecular target: Gal(a1-3)GalNAc
# Summary of the method: as §1
# [12] = molecular target: Gal(a1-3)[Gal(a1-4)]Gal(b1-4)GlcNAc
# Summary of the method: as §1
# [13] = molecular target: Gal(a1-4)Gal(b1-3)GlcNAc(b1-2)Man(a1-3)[Gal(a1-4)Gal(b1-3)GlcNAc(b1-2)Man(a1-6)]Man(b1-4)GlcNAc(b1-4)GlcNAc
# Summary of the method: as §1
# Gal(a1-4)Gal(b1-4)Glc = molecular target: Gal(a1-4)Gal(b1-4)Glc
# Summary of the method: as §1
# Gal(a1-4)Gal(b1-4)GlcNAc = molecular target: Gal(a1-4)Gal(b1-4)GlcNAc
# Summary of the method: as §1
# [14] = molecular target: Gal(a1-4)Gal(b1-4)GlcNAc(b1-2)Man(a1-3)[Gal(a1-4)Gal(b1-4)GlcNAc(b1-2)Man(a1-6)]Man(b1-4)GlcNAc(b1-4)GlcNAc
# Summary of the method: as §1
# [15] = molecular target: Gal(a1-4)Gal(b1-4)GlcNAc(b1-3)Gal(b1-4)Glc
# Summary of the method: as §1
# Gal(a1-4)GlcNAc = molecular target: Gal(a1-4)GlcNAc
# Summary of the method: as §1
# Gal(a1-6)Glc = molecular target: Gal(a1-6)Glc
# Summary of the method: as §1
# Gal(b1-2)Gal = molecular target: Gal(b1-2)Gal
# Summary of the method: as §1
# Gal(b1-3)Gal = molecular target: Gal(b1-3)Gal
# Summary of the method: as §1
# Gal(b1-3)Gal(b1-4)GlcNAc = molecular target: Gal(b1-3)Gal(b1-4)GlcNAc
# Summary of the method: as §1
# [16] = molecular target: Gal(b1-3)Gal(b1-4)GlcNAc(b1-2)Man(a1-3)[Gal(b1-3)Gal(b1-4)GlcNAc(b1-2)Man(a1-6)]Man(b1-4)GlcNAc(b1-4)GlcNAc
# Summary of the method: as §1
# Gal(b1-3)GalNAc = molecular target: Gal(b1-3)GalNAc
# Summary of the method: as §1
# [17] = molecular target: Gal(b1-3)GalNAc(a1-3)[Fuc(a1-2)]Gal(b1-4)Glc
# Summary of the method: as §1
# [18] = molecular target: Gal(b1-3)GalNAc(a1-3)[Fuc(a1-2)]Gal(b1-4)GlcNAc
# Summary of the method: as §1
# Gal(b1-3)GalNAc(b1-3)Gal = molecular target: Gal(b1-3)GalNAc(b1-3)Gal
# Summary of the method: as §1
# [19] = molecular target: Gal(b1-3)GalNAc(b1-3)Gal(a1-4)Gal(b1-4)Glc
# Summary of the method: as §1
# [20] = molecular target: Gal(b1-3)GalNAc(b1-4)Gal(b1-4)Glc
# Summary of the method: as §1
# [21] = molecular target: Gal(b1-3)GalNAc(b1-4)[Neu5Ac(a2-3)]Gal(b1-4)Glc
# Summary of the method: as §1
# Gal(b1-3)GlcNAc = molecular target: Gal(b1-3)GlcNAc
# Summary of the method: as §1
# [22] = molecular target: Gal(b1-3)GlcNAc(a1-3)Gal(b1-4)GlcNAc
# Summary of the method: as §1
# [23] = molecular target: Gal(b1-3)GlcNAc(a1-6)Gal(b1-4)GlcNAc
# Summary of the method: as §1
# Gal(b1-3)GlcNAc(b1-2)Man = molecular target: Gal(b1-3)GlcNAc(b1-2)Man
# Summary of the method: as §1
# [24] = molecular target: Gal(b1-3)GlcNAc(b1-2)Man(a1-3)[Gal(b1-3)GlcNAc(b1-2)Man(a1-6)]Man(b1-4)GlcNAc(b1-4)GlcNAc
# Summary of the method: as §1
# [25] = molecular target: Gal(b1-3)GlcNAc(b1-2)Man(a1-3)[Gal(b1-3)GlcNAc(b1-2)Man(a1-6)]Man(b1-4)GlcNAc(b1-4)[Fuc(a1-6)]GlcNAc
# Summary of the method: as §1
# [26] = molecular target: Gal(b1-3)GlcNAc(b1-2)Man(a1-3)[GlcNAc(b1-4)][Gal(b1-3)GlcNAc(b1-2)Man(a1-6)]Man(b1-4)GlcNAc(b1-4)GlcNAc
# Summary of the method: as §1
# [27] = molecular target: Gal(b1-3)GlcNAc(b1-2)[Gal(b1-3)GlcNAc(b1-6)]Man(a1-6)[Gal(b1-3)GlcNAc(b1-2)Man(a1-3)]Man(b1-4)GlcNAc(b1-4)GlcNAc
# Summary of the method: as §1
# [28] = molecular target: Gal(b1-3)GlcNAc(b1-3)Gal(b1-3)GlcNAc
# Summary of the method: as §1
# [29] = molecular target: Gal(b1-3)GlcNAc(b1-3)Gal(b1-4)Glc
# Summary of the method: as §1
# [30] = molecular target: Gal(b1-3)GlcNAc(b1-3)Gal(b1-4)GlcNAc
# Summary of the method: as §1
# [31] = molecular target: Gal(b1-3)GlcNAc(b1-3)Gal(b1-4)GlcNAc(b1-2)Man(a1-3)[Gal(b1-3)GlcNAc(b1-3)Gal(b1-4)GlcNAc(b1-2)Man(a1-6)]Man(b1-4)GlcNAc(b1-4)GlcNAc
# Summary of the method: as §1
binder,measurement,setting,value
"Gal 1 (Mus musculus), P16045 (protein) MACGLVASNLNLKPGECLKVRGEVASDAKSFVLNLGKDSNNLCLHFNPRFNAHGDANTIVCNTKEDGTWGTEHREPAFPFQPGSITEVCITFDQADLTIKLPDGHEFKFPNRLNMEAINYMAADGDFKIKCVAFE",glycan array binding signal (z-score),[1],-0.17
same,glycan array binding signal (z-score),[2],-0.163
same,glycan array binding signal (z-score),[3],-0.23
same,glycan array binding signal (z-score),[4],-0.163
same,glycan array binding signal (z-score),[5],-0.211
same,glycan array binding signal (z-score),Gal(a1-3)Gal(b1-4)Glc,-0.31
same,glycan array binding signal (z-score),Gal(a1-3)Gal(b1-4)GlcNAc,-0.167
same,glycan array binding signal (z-score),[6],0.445
same,glycan array binding signal (z-score),[7],4.96
same,glycan array binding signal (z-score),[8],-0.094
same,glycan array binding signal (z-score),[9],-0.27
same,glycan array binding signal (z-score),[10],-0.121
same,glycan array binding signal (z-score),[11],0.101
same,glycan array binding signal (z-score),Gal(a1-3)GalNAc,-0.186
same,glycan array binding signal (z-score),[12],-0.36
same,glycan array binding signal (z-score),[13],-0.269
same,glycan array binding signal (z-score),Gal(a1-4)Gal(b1-4)Glc,-0.376
same,glycan array binding signal (z-score),Gal(a1-4)Gal(b1-4)GlcNAc,-0.318
same,glycan array binding signal (z-score),[14],-0.146
same,glycan array binding signal (z-score),[15],-0.303
same,glycan array binding signal (z-score),Gal(a1-4)GlcNAc,-0.365
same,glycan array binding signal (z-score),Gal(a1-6)Glc,0.039
same,glycan array binding signal (z-score),Gal(b1-2)Gal,0.468
same,glycan array binding signal (z-score),Gal(b1-3)Gal,-0.303
same,glycan array binding signal (z-score),Gal(b1-3)Gal(b1-4)GlcNAc,-0.195
same,glycan array binding signal (z-score),[16],0.8
same,glycan array binding signal (z-score),Gal(b1-3)GalNAc,-0.273
same,glycan array binding signal (z-score),[17],-0.41
same,glycan array binding signal (z-score),[18],-0.357
same,glycan array binding signal (z-score),Gal(b1-3)GalNAc(b1-3)Gal,-0.391
same,glycan array binding signal (z-score),[19],-0.32
same,glycan array binding signal (z-score),[20],-0.424
same,glycan array binding signal (z-score),[21],-0.383
same,glycan array binding signal (z-score),Gal(b1-3)GlcNAc,-0.203
same,glycan array binding signal (z-score),[22],0.126
same,glycan array binding signal (z-score),[23],-0.236
same,glycan array binding signal (z-score),Gal(b1-3)GlcNAc(b1-2)Man,-0.113
same,glycan array binding signal (z-score),[24],0.197
same,glycan array binding signal (z-score),[25],-0.054
same,glycan array binding signal (z-score),[26],0.047
same,glycan array binding signal (z-score),[27],1.76
same,glycan array binding signal (z-score),[28],-0.2
same,glycan array binding signal (z-score),[29],-0.047
same,glycan array binding signal (z-score),[30],-0.22
same,glycan array binding signal (z-score),[31],0.739
